Measured values reported in PubChem BioAssay AID686979 (National Center for Advancing Translational Sciences (NCATS), 2013).
Where “and” joins values, the source holds several entries; their conditions need not be identical. Equal entries are not always repeated. Screen size: about 420,000 compounds; about 50,000 (12%) were called active. The inconclusive results got no clear call from the source; some entries with a clear call stand among them for comparison. The call rests on the fitted dose curve; in most records, active means well fitted inhibition curve with a large enough effect; inconclusive means small, poorly fitted or top-dose-only effect; inactive means flat fitted curve, though single readings scatter. Potencies of inconclusive entries are doubtful fits and often do not repeat.
On the % scale 0 is the no-effect control and ±100 the full control effect; potency means the concentration at half of the fitted maximal effect; tags describe the fitted curve by direction and shape.

Assay: qHTS for Inhibitors of human tyrosyl-DNA phosphodiesterase 1 (TDP1): qHTS in cells in presence of CPT; further: nearly all actives have a fitted effect of over 55% in size
Conditions: chicken DT40 Tdp1-/-;hTDP1 cells + 20 nM CPT, ATP luminescence, 48 h; activity change, negative = growth inhibition: at 46.2 µM (top of the series)
Method in brief: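 Chicken DT40 Tdp1-/- cells complemented with human TDP1, 400 cells/well, exposed to compounds plus 20 nM camptothecin for at least 48 h at 37 C; viability read as ATP content by CellTiter-Glo luminescence.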
With `CCOC(=O)C1=CCC(C(C)(C)C)N(S(=O)(=O)c2ccc(C)cc2)C1` (stereo not drawn) the Potency was inconclusive: 18.4 µM [inhibitor, single point].
In the case of `C[C@@]12C(=O)Nc3ccc(Br)cc3C(=O)N1[C@H]1c3cc(Br)ccc3OC[C@@H]1[C@@H]2c1ccccc1`, the Potency is reported as active: 18.4 µM.
For `COc1ccc(-n2sc3ccccc3c2=O)cc1`, the Potency was active: 3.66 µM.
With `O=C(Cn1ncc2c3ccccc3n(Cc3ccc(F)cc3)c2c1=O)NC1CCCCCC1` the Potency was inconclusive: 5.8 µM [inhibitor, full curve].
In the case of `C/C(CC(=O)Nc1cccc(C(F)(F)F)c1)=N/NC(=O)C(=O)NCCO`, the Potency is reported as “inactive”.
For `COCCn1c(=NC(=O)CSC(C)=O)sc2cc(F)ccc21`, the Potency was active: 20.6 µM.
In the case of `O=C(C1CCCCC1)N(Cc1cccnc1)c1nc2c(F)cccc2s1`, the Potency is reported as active: 20.6 µM.
For `COc1cc(C(=O)NC(=S)Nc2ccccc2N2CCCC2)cc(OC)c1OC`, the Potency was inconclusive: 25.9 µM [inhibitor, single point].
With `CC(=O)NCCc1nc2ccccc2n1CCc1ccccc1` the Potency was inconclusive: 0.0146 µM [inhibitor, full curve, poor fit].
For `CC(C)Oc1ccc(CNC(=O)c2ccc3c(c2)N(Cc2ccc(F)cc2)CCS3)cc1`, the Potency was active: 10.3 µM.
With `O=[N+]([O-])c1ccc(S(=O)(=O)N2CCN(c3ccccn3)CC2)cc1` the Potency was “inactive”.
For `CCc1ccccc1NC(=O)C/C(C)=N/NC(=O)COc1ccccc1C`, the Potency was “inactive”.
With `COc1ccc(C(=O)NCC(=O)OCC(=O)Nc2ncc(Cl)cc2Cl)cc1[N+](=O)[O-]` the Potency was “inactive”.
For `COCCCNC(=O)c1ccc(CSCc2ccc(C)cc2)o1`, the Potency was inconclusive: 25.9 µM [inhibitor, single point].
In the case of `CC(=O)Nc1scc(-c2ccccc2)[n+]1-c1ccc(C)cc1`, the Potency is reported as active: 14.6 µM.
For `COCCN(C(=S)Nc1ccccc1C)C(C)c1cccs1` (stereo not drawn), the Potency was inconclusive: 29.1 µM [inhibitor, single point].
For `O=C(Nc1nnc(-c2ccccn2)o1)c1cccc(Br)c1`, the Potency was active: 20.6 µM.
With `Cn1nnnc1SCC(=O)Nc1nc(-c2ccccc2)c(-c2ccccc2)o1` the Potency was inconclusive: 23.1 µM [inhibitor, single point].
With `Cc1ccc2c(c1)N(CCC(=O)NCC1COc3ccccc3O1)C(=O)CO2` (stereo not drawn) the Potency was inconclusive: 14.6 µM [inhibitor, single point].
For `COc1cc(C(O)c2nc(-c3cccc(C#N)c3)cs2)ccc1F` (stereo not drawn), the Potency was inconclusive: 25.9 µM [inhibitor, single point].
In the case of `Cc1ccc(C(=O)N/N=C/c2cccc(OC(=O)/C=C/c3ccco3)c2)cn1`, the Potency is reported as inconclusive: 29.1 µM [inhibitor, single point].
In the case of `c1c(CC2CCCC2)nnn1C[C@H]1CC[C@@H]([C@@H]2CC[C@H](Cn3cc(CC4CCCC4)nn3)O2)O1`, the Potency is reported as inconclusive: 18.4 µM [inhibitor, single point].
For `COc1ccc2[nH]c3c(=O)n(/N=C/c4ccc(OC)c(CN5CCCC5)c4)c(C)nc3c2c1`, the Potency was inconclusive: 29.1 µM [inhibitor, partial curve, poor fit].
For `C(=C\c1c[nH]c2ccccc12)/c1ccc2ccccc2n1`, the Potency was inconclusive: 35.5 µM [inhibitor, single point].
With `O=C(Nc1ccccc1C(=O)Nc1ccncc1)c1ccccc1` the Potency was “inactive”.
In the case of `CCOC(=O)C1=C(C)N=c2sc(=Cc3ccc(OCC(=O)O)cc3)c(=O)n2C1c1ccc(Cl)cc1` (stereo not drawn), the Potency is reported as inconclusive: 29.1 µM [inhibitor, single point].
With `C[C@H](CO)N1C[C@H](C)[C@H](CN(C)C(=O)Nc2ccccc2)OCc2cnnn2CCCC1=O` the Potency was “inactive”.
With `O=C(CN1CCN(c2ccccc2O)CC1)Nc1cc([N+](=O)[O-])ccc1Cl` the Potency was inconclusive: 18.4 µM [inhibitor, single point].
With `O=C(c1cnccn1)N1CCC2(CCN(Cc3nccs3)CC2)CC1` the Potency was “inactive”.
In the case of `Cc1oc(-c2ccc(-c3ccccc3)cc2)nc1CN1CCN(CC(=O)N(C)C)CC1`, the Potency is reported as “inactive”.
For `COc1ccc(NC(=O)C2Cc3c(-c4ccc5c(c4)OCO5)ccnc3O2)cn1` (stereo not drawn), the Potency was active: 4.11 µM.
In the case of `Cc1cc(C)nc(/N=C(\N)Nc2ccc(OCc3ccccc3)cc2)n1`, the Potency is reported as active: 11.6 µM.
With `Cc1scc(-c2n[nH]c(=S)n2C(C)c2ccccc2)c1C` (stereo not drawn) the activity change, negative = growth inhibition was inconclusive: -33.1% [inhibitor].
With `O=C(CCc1nc2ccccc2c(=O)[nH]1)Nc1ccc(F)c([N+](=O)[O-])c1` the Potency was inconclusive: 20.6 µM [inhibitor, partial curve].
For `O=C(c1ccccc1F)N1CCN(c2ccc([N+](=O)[O-])cc2-n2cccc2)CC1`, the Potency was inconclusive: 18.4 µM [inhibitor, single point].
In the case of `COc1ccc(-c2cc(C(=O)Nc3ccc(S(=O)(=O)Nc4ncccn4)cc3)c3ccccc3n2)cc1`, the Potency is reported as inconclusive: 4.61 µM [inhibitor, full curve].
In the case of `Cc1ccc2c(CN3CCN(Cc4ccc5c(c4)OCO5)CC3)cc(=O)oc2c1C`, the Potency is reported as inconclusive: 23.1 µM [inhibitor, single point].
For `CCC1(Cc2ccccc2)NC(=O)c2ccccc2O1` (stereo not drawn), the Potency was “inactive”.
In the case of `Cc1ccccc1SCC(=O)Nc1ccc(N2CCOCC2)cc1`, the Potency is reported as inconclusive: 29.1 µM [inhibitor, single point].
With `CCOc1ccc2[nH]c(C(=O)N/N=C/c3ccc(OC)cc3)cc2c1` the Potency was active: 0.58 µM.
For `COc1ccc(C)cc1NC(=O)CN1CCCN(S(=O)(=O)c2ccc(Br)cc2)CC1`, the Potency was inconclusive: 16.4 µM [inhibitor, single point] and inconclusive: 20.6 µM [inhibitor, single point].
For `CC1CC2(CCCCC2)N2C(=O)C(=O)c3cccc1c32` (stereo not drawn), the Potency was inconclusive: 16.4 µM [inhibitor, single point].
With `Cc1cc(=O)oc2c(C)c(OC(=O)c3ccco3)ccc12` the Potency was “inactive”.
In the case of `CCCCCCN1C[C@H](O)[C@@H](n2cc(-c3ccc(F)cc3)nn2)C[C@@H]1c1ccc(C)cc1`, the Potency is reported as inconclusive: 16.4 µM [inhibitor, single point].
In the case of `O=c1c(Cc2ccc(F)cc2)c(O)ccn1Cc1ccco1`, the Potency is reported as “inactive”.
With `Cc1ccc(-c2csc(N3CCN(c4cc5c(cc4Cl)nc(-c4ccncc4)n5CCN4CCCCC4)CC3)n2)cc1` the Potency was inconclusive: 29.1 µM [inhibitor, single point].
For `Cc1ccc(-n2c(N)c(C(=O)N3CCCCC3)sc2=S)cc1`, the Potency was inconclusive: 29.1 µM [inhibitor, single point].
In the case of `O=c1[nH]c(C2CCCCC2)nc2ccccc12`, the Potency is reported as “inactive”.
In the case of `COc1cc(/C=N/OCC(=O)NC2CCCCC2C)ccc1OCc1ccc(Cl)cc1` (stereo not drawn), the Potency is reported as active: 18.4 µM.
In the case of `CCOc1ccccc1N1CN(CC)CNC1=S`, the Potency is reported as “inactive”.
With `CC(NS(=O)(=O)c1ccc2c(c1)CC(=O)N2C)c1ccccc1` (stereo not drawn) the Potency was “inactive”.
In the case of `Cc1ccc(Nc2cccc(C(F)(F)F)c2)nn1`, the Potency is reported as “inactive”.
In the case of `Cc1cccc(C(=O)c2cnc3ccccc3c2-c2ccccc2)c1`, the Potency is reported as active: 14.6 µM.
In the case of `COC(=O)c1cc(OC)c(OC)c(OC)c1NC(=O)c1cc(=O)n(C)c(=O)n1C`, the Potency is reported as “inactive”.
For `COc1ccc(N2CCN(C(=O)c3cn(C4CCCCC4)c(=O)c4c3c3ccccc3n4C)CC2)cc1`, the Potency was active: 23.1 µM.
In the case of `COC(=O)c1cccc(Nc2c(-c3ccc(O)cc3)nc3nc[nH]n23)c1`, the Potency is reported as inconclusive: 29.1 µM [inhibitor, single point].
In the case of `COC(=O)C[C@H](NC(=O)Cn1cc(C)c(=O)[nH]c1=O)C(=O)OC`, the Potency is reported as “inactive”.
In the case of `Cc1cnc(C(=O)Nc2nccs2)cn1`, the Potency is reported as “inactive”.
With `CC(=O)Nc1ccc(Nc2nc(Nc3ccc(Cl)cc3)nc(N3CCOCC3)n2)cc1` the Potency was active: 1.26 µM.
For `Cc1c(/C=N\NC(=O)C2(C)CC2(Cl)Cl)cnn1C` (stereo not drawn), the Potency was “inactive”.
For `CC(=O)c1c(N2CCN(CCO)CC2)nc(=S)n(-c2ccccc2)c1C`, the Potency was “inactive”.
In the case of `CCOC(=O)C1CCN(C(c2cc3ccc(C)c(C)c3[nH]c2=O)c2nnnn2C2CCCCC2)CC1` (stereo not drawn), the Potency is reported as inconclusive: 29.1 µM [inhibitor, single point].
For `COC(=O)c1cc(OC)c(OC)cc1NC(=O)CN1CCCCC1`, the Potency was “inactive”.
In the case of `O=C(Nc1ccc(Cl)cc1)c1csc([C@H]2C[C@H](O)[C@@H](CO)O2)n1`, the Potency is reported as inconclusive: 29.1 µM [inhibitor, single point].
With `CCOC(=O)Cn1nnnc1CN(Cc1cccs1)Cc1cc2cc(C)ccc2[nH]c1=O` the activity change, negative = growth inhibition was inconclusive: -30.9% [inhibitor].
In the case of `COc1ccc(S(=O)(=O)N2CCOCC2)cc1NC(=O)c1sccc1C`, the Potency is reported as inconclusive: 16.4 µM [inhibitor, partial curve, poor fit].
With `CCCCNC(=S)N1CCN(C(c2ccccc2)c2ccccc2)CC1` the Potency was inconclusive: 29.1 µM [inhibitor, single point].
For `Cc1cc(C(=O)N/N=C/c2cccc([N+](=O)[O-])c2O)n[nH]1`, the Potency was inconclusive: 29.1 µM [inhibitor, single point].
With `FC(F)(F)c1cc(CN2CC[C@@]3(CCCNC3)C2)cc(C(F)(F)F)c1` the Potency was inconclusive: 20.6 µM [inhibitor, single point].
In the case of `NC(=O)CSc1nc2ccccc2c(=O)n1Cc1ccco1`, the Potency is reported as “inactive”.
In the case of `COc1ccc(/C=C/c2c(-c3cccc(C)c3)oc3ccc(N4CCOCC4)cc23)cc1`, the Potency is reported as inconclusive: 29.1 µM [inhibitor, partial curve, poor fit].
In the case of `Cn1ccnc1SCc1ccc(Cl)cc1Cl`, the Potency is reported as inconclusive: 32.6 µM [inhibitor, single point].
In the case of `O=C1C(C=NCc2ccco2)=C(O)c2ccccc21`, the Potency is reported as inconclusive: 25.9 µM [inhibitor, single point].
